# The campaign covered roughly 310,000 compounds. About 2,200 (0.71%) showed an effect of 50% or more. The effect is printed as a negative number. This is one part of the list.
# Target: human ether-à-go-go-related gene (hERG) potassium channel (human, UniProt Q12809)
# Assay: primary screen, population patch clamp on CHO cells stably expressing hERG
# Sequence of human ether-à-go-go-related gene (hERG) potassium channel (Q12809 whole entry, looked up): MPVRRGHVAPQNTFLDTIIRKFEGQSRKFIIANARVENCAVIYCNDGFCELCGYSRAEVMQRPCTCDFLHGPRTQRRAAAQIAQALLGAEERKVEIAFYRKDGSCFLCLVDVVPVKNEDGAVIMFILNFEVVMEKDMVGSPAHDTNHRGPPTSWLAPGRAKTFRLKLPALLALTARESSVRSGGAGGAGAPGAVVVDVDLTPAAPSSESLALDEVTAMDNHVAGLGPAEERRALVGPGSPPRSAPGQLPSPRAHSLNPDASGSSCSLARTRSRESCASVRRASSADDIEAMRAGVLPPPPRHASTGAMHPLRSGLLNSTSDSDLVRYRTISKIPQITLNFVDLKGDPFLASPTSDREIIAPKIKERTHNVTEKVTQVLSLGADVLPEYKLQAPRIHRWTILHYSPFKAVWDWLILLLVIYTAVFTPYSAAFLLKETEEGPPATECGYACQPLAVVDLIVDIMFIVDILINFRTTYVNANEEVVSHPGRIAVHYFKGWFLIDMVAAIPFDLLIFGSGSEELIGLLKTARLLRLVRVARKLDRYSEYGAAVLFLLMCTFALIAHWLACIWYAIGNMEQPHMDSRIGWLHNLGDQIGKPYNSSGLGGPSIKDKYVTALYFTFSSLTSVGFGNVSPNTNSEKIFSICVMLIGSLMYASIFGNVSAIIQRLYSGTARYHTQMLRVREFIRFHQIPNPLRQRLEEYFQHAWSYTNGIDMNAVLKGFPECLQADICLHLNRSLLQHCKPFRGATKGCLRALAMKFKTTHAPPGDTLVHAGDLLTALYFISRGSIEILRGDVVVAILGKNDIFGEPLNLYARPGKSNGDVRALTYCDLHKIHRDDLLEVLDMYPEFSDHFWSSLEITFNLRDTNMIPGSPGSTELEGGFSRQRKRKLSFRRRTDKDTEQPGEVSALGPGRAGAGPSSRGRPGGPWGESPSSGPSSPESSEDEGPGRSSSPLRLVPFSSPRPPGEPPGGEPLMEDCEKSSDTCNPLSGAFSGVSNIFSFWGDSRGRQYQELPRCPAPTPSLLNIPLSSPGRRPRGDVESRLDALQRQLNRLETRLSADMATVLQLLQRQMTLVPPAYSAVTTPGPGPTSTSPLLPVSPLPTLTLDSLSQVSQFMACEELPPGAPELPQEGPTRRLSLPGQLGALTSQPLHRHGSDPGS
row,Structure (SMILES),"hERG current change (%, negative = inhibition) at 1uM"
1,CCOc1ccc(NC2=NC(C(=O)NCc3ccccc3)CC(=O)N2)cc1 (stereo not shown),7.04%
2,Cc1ccc(C)c(N2CCN(S(=O)(=O)c3cc4c(cc3Cl)NC(=O)CO4)CC2)c1,12%
3,COc1ccc(-c2cnnn2-c2ccc(NC(=O)c3ccc(S(=O)(=O)N4CCCCC4)cc3)cc2)cc1,6.57%
4,COc1ccc(C(C)=O)cc1CN1CCCCC1.Cl,11.2%
5,Cc1[nH]c2ccccc2c1NC(=O)CN1CCN(c2cccc(C(F)(F)F)c2)CC1,2.73%
6,CC(C)(C)NC(=O)N1CCCN(c2ccc(C(F)(F)F)cn2)CC1,-0.78%
7,CCOC(=O)c1ccccc1NC(=O)c1ccc(F)cc1,13.6%
8,CCc1nnc(NC(=O)CSc2nc(-c3ccc(OC)cc3)ns2)s1,12.5%
9,Cc1[nH]c2ccccc2c1C(=O)CN1C(=O)C(=O)N(Cc2ccco2)C1=O,-4.44%
10,Cc1ccc2occ(/C=N/O)c(=O)c2c1,11.4%
11,CCc1ccc(NC(=O)NC2CCCCCCC2)cc1,17.6%
12,COc1cccc(Cn2c(Oc3cccc(C)c3)nc3c2c(=O)n(C)c(=O)n3C)c1,4.42%
13,O=C(N/N=C/c1cccnc1)c1cc(-c2ccccc2Cl)nc2ccccc12,5.08%
14,CCCCC[C@H](O)/C=C/[C@@H]1[C@@H](C/C=C\CCCC(=O)O)[C@@H](O)C[C@H]1O.NC(CO)(CO)CO,14.9%
15,O=C(N/N=C/c1ccco1)c1cc(-c2ccc(Cl)s2)[nH]n1,16.2%
16,O=S(=O)(c1cc(F)ccc1F)N1CCN2CCCC2C1 (stereo not shown),17.7%
17,O=C(Nc1nc(-c2ccccn2)cs1)c1ccc([N+](=O)[O-])o1,8.67%
18,CC(C)(C)OC(=O)NN1CC(=O)N2[C@@H](Cc3c([nH]c4ccccc34)C2(C)C)C1=O,24.1%
19,Cc1c(Br)cc(-c2nnco2)cc1Br,19%
20,COc1ccc(-n2ncc3c(=O)n(CC(=O)NC(C)C)cnc32)cc1,7.75%
21,CC1(C)CC(=O)C(N=Nc2cccc(F)c2C#N)=C(O)C1,15%
22,C/C(CC(=O)Nc1ccc(Cl)cc1C(F)(F)F)=N\NC(=O)c1ccccn1,13.4%

row,Structure (SMILES),"hERG current change (%, negative = inhibition) at 1uM"
1,C/C(=N\NS(=O)(=O)c1ccc(C)cc1)c1ccc(C)o1,9.31%
2,O=C(CSc1nnc(Cc2ccccc2)o1)N1CCCC1,7.19%
3,CCOC(=O)Cn1nnc(-c2cccc(OC)c2)n1,9.82%
4,O=C(Cc1ccccc1)NC(=S)Nc1ccc(OC(F)F)cc1,6.25%
5,COc1cc(C(=S)N2CCCCC2)ccc1OCC(=O)Nc1ccccc1Cl,17.5%
6,COc1ccc(-c2nc3ncccn3c2Nc2ccccc2)cc1,-4.18%
7,COc1ccccc1-n1c(C)c(C(=O)O)c2cc(OC)c3ccccc3c21,11.3%
8,CCN(CC)S(=O)(=O)c1ccc(C(=O)NCCCn2ccnc2)cc1,12.7%
9,O=C(COC(=O)c1ccccc1NS(=O)(=O)c1cccs1)NC1CCCCC1,2.45%
10,COc1ccc(CCNC(=O)Cc2ccc(NC3=NC4CS(=O)(=O)CC4S3)cc2)c(OC)c1 (stereo not shown),16.2%
11,O=C(COC(=O)CNC(=O)c1ccccc1F)Nc1cccc(S(=O)(=O)N2CCCCCC2)c1,10.5%
12,CCOC(=O)C(NC(C)=O)C(=O)Nc1ccc(C)cc1C (stereo not shown),14.2%
13,O=C(CN1CCOc2ccccc21)NCc1cccs1,8.87%
14,O=C(NCc1ccccn1)c1ccc(NS(=O)(=O)c2cccc([N+](=O)[O-])c2)cc1,15.4%
15,CCCc1nc2c(sc3nc4c(cc32)COC(C)(C)C4)c(=O)o1,23.7%
16,Cc1nn(C)c(C(=O)Nc2cccc(Nc3ccccc3)c2)c1[N+](=O)[O-],4.32%
17,COc1cccc(NC(=O)CSc2nc3ccccc3c(=O)n2CCCC(=O)NCC2CCCO2)c1 (stereo not shown),-10.7%
18,CCCc1cc(=O)[nH]c(SCc2cc(C(=O)OC)c(C)o2)n1,10.9%
19,COc1ccc(-c2sc3ccccc3c2C#CCO)cc1,8.98%
20,CCCOC(=O)c1ccc(S(N)(=O)=O)o1,18.2%
21,CCCC(=O)Nc1cc(C(=O)N(C)CC(OC)OC)ccc1S(=O)(=O)c1ccc(C)cc1,13.7%

# Source: PMC4336329 (PLoS ONE, 2015)
